# According to article PMC4336329 (PLoS ONE, 2015):
# Among all 310,000 compounds or so, about 14,000 (4.5%) showed an effect of 50% or more. The effect is printed as a negative number. The list shows a part of the results.
# Target: human ether-à-go-go-related gene (hERG) potassium channel (human, UniProt Q12809)
# Experiment: primary screen, population patch clamp on CHO cells stably expressing hERG
# 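Further: peak tail current of the secondary pulse compared with the same well before compound.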
# human ether-à-go-go-related gene (hERG) potassium channel, sequence (Q12809 whole entry, looked up): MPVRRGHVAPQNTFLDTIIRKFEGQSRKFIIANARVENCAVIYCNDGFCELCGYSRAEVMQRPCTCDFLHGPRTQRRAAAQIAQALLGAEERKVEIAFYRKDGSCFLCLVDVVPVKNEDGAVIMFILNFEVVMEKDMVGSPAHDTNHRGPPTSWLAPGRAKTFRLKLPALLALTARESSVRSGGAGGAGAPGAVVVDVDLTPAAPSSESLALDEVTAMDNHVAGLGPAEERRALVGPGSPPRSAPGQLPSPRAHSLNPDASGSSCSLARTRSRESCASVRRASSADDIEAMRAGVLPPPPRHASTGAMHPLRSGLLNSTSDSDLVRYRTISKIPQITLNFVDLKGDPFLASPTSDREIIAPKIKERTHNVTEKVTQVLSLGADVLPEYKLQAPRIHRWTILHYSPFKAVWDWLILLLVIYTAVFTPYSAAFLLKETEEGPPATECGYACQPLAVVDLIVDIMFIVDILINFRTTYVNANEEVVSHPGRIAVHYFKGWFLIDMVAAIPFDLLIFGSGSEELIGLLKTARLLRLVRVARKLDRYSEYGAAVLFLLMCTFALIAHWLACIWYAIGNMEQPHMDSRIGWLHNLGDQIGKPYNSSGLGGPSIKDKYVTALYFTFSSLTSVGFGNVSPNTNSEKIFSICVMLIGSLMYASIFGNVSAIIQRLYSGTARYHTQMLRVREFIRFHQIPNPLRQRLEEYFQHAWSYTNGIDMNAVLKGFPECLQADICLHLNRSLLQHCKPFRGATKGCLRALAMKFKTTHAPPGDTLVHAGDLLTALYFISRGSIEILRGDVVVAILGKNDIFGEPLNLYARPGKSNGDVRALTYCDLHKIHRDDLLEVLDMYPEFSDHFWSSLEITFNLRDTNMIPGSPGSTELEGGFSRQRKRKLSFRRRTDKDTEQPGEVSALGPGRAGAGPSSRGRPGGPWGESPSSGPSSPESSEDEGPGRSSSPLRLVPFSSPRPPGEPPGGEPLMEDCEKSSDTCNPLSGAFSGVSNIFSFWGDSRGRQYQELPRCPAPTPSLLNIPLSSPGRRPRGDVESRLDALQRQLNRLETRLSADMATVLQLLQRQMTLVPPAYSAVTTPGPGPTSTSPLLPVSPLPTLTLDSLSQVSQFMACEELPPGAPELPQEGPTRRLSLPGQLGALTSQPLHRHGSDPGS
row,Structure (SMILES),"hERG current change (%, negative = inhibition) at 10uM [%]"
1,Fc1ccccc1NC(=S)NNc1ncc(C(F)(F)F)cc1Cl,21.2
2,CC1(C)C2CCC1(C)C(OC(=O)C[n+]1ccccc1)C2.[Cl-] (stereo not drawn),23.9
3,CC(C)(O)[C@@H]1[C@@H]2C[C@@]3(CC[C@]4(C)C(CCC5[C@@]6(C)CC[C@H](O)C(C)(C)C6CC[C@]54C)[C@@H]13)C(=O)O2 (stereo partly drawn),4.28
4,COc1ccc(OC)c(NC(=O)Cn2c(CCC(=O)O)ccc2-c2cccs2)c1,3.59
5,CN(C(=O)COC(=O)C(Cc1ccccc1)NC(=O)c1ccccc1)c1ccccc1 (stereo not drawn),-9.13
6,COc1ccc(CN(CC2CCC(C(=O)O)CC2)C(=S)Nc2ccc(C)c(Cl)c2)cc1 (stereo not drawn),8.35
7,CN(C(=O)Cc1noc2ccccc12)c1ccccc1,4.76
8,COC(=O)CSc1ccc2c(N)c(C(=O)OC)sc2c1,4.09
9,Cc1cc(C)cc(OC(=O)c2cccnc2)c1,13.5
10,CN(C)S(=O)(=O)c1ccc(C(=O)N2CCOCC2)cc1,10.5
11,COc1ccc(CC(=O)Nc2ccc(C(=O)Nc3ccccc3C(=O)O)cc2)cc1OC,15.4
12,COc1cc(C2C(C#N)=C(N)Oc3cc(C)n(CCc4ccccc4)c(=O)c32)cc2c1OCO2 (stereo not drawn),3.51
13,O=C1NC(=O)N(Cc2ccccc2)C(=O)/C1=C\N1CCCc2ccccc21,-2.24
14,S=C(NCCc1ccccc1)N/N=C/C1CCCCC1,2.45
15,CC1(C)CC(=O)C(C=NC2CC(C)(C)NC(C)(C)C2)=C(O)C1,4.88
16,Cc1ccc(C(=O)NCC(=O)OCC(=O)NCC(F)(F)F)cc1,14.1
17,Cc1nnc(SCC(=O)NC(C)(C)C)n1NCc1ccc(Cl)cc1,-10.4
18,CCOC(=O)CSCc1nc(-c2ccc(Cl)cc2)oc1C,-1.57
19,O=C(COC(=O)[C@@H]1CCCN1S(=O)(=O)c1ccc(Cl)cc1)NC12CC3CC(CC(C3)C1)C2,-12
20,COc1ccccc1NC1C=CS(=O)(=O)C1 (stereo not drawn),-28.7
21,Cc1cccc(Nc2nc(N)nc(CSC(=S)N3CCOCC3)n2)c1,-0.689
22,CCN(Cc1nc(-c2ccccc2)no1)C(=O)COc1cccc(OC)c1,-16.3
23,CSCCC(NC(N)=O)C(=O)NCC1CCCCC1 (stereo not drawn),8.35
24,Fc1cccc(Cl)c1Cn1nnc2c(-n3ccnc3)ncnc21,0.152
